Out of some 350,000 compounds screened, about 9,900 (2.8%) were called active. The inconclusive results got no clear call from the source; some entries with a clear call stand among them for comparison. Calls come from the whole dose curve; as a rule, active = well fitted activation curve with a large enough effect; inconclusive = small, poorly fitted or top-dose-only effect; inactive = no such curve, though single readings can be large or run the other way. No potency is given beside an inconclusive call; the fits are too rough.
assay: A quantitative high throughput screen for small molecules that induce DNA re-replication in MCF 10a normal breast cells.; note: nearly all actives have a fitted effect of over 50% in size; conditions: MCF 10A DNA re-replication, Hoechst nuclear intensity, 48 h; series mostly up to 46.1 µM
Potency is the fitted concentration of half-maximal effect; tags give direction and shape of the fitted curve.

SMILES | Potency
COc1cc(/C=C(/C(=O)c2cccs2)c2nc3ccccc3[nH]2)cc(OC)c1O | active: 16.4 µM
CCOC(=O)N1CC=C2C(C#N)=C(N)C(C#N)(C#N)[C@H](c3ccc(OCC)c(OCC)c3)[C@H]2C1 | inactive
Cn1ccs/c1=N\C(=O)Nc1ccccc1 | inactive
Cc1cc(/C=C(\C#N)C(=O)Nc2ccccc2)c(C)n1-c1ccc2c(c1)OCO2 | inconclusive [activator, full curve]
O=C(NC1=NN(c2ccccc2)CC1)Nc1ccccc1F | inconclusive [activator, partial curve, poor fit]
O=C(O)C1=C[C@H](c2cccs2)C[C@H](OCCCCO)O1 | inactive
O=C(Nc1ccccc1)c1cccnc1Nc1ccccc1 | inconclusive [activator, partial curve, poor fit]
CCN(CC)c1ccc(/C=N/NC(=O)c2cccc(S(=O)(=O)Nc3ccccc3OC)c2)c(O)c1 | inconclusive [activator, full curve]
CCOC(=O)Cc1nc2cc(Cl)ccc2o1 | inconclusive [activator, single point]
Cc1ccc(N2C(=O)C(CN3CCCCC3)C2c2ccccc2)cc1 (centres undefined) | inconclusive [activator, single point]
CCCOc1ccc(/C=C/c2c([N+](=O)[O-])c(=O)n(C)c(=O)n2C)cc1 | inactive
O=C(CCN1C(=O)S/C(=C\c2cccs2)C1=O)NC1=NCCS1 | inactive
COc1cc(-c2nc3ccccn3c2/N=C/c2cccc(OC)c2O)ccc1O | inconclusive [activator, single point]
O=C(Nc1ccc(Br)c2ccccc12)c1ccc2ccccc2c1O | active: 3.26 µM
CCn1ncc([N+](=O)[O-])c1C(=O)Nc1ccc(C)c(C)c1 | inactive
COCCCNC(=O)c1ccc(Cn2c(=O)[nH]c3ccccc3c2=O)cc1 | inconclusive [activator, single point]
COc1ccc(Cn2ccnc2SCC(=O)NC2CCCC2)cc1 | inactive
CCC(C)(C(=O)NC1CCCC1)N(Cc1ccco1)C(=O)c1ccc2c(c1)OCO2 (centres undefined) | inactive
Cc1ccc(C2Oc3ccccc3C3=C2C(c2cccs2)n2ncnc2N3)cc1 (centres undefined) | active: 5.8 µM
CCOC(=O)Cn1nnnc1C(CC)N(Cc1cccs1)Cc1cc2cc(C)ccc2[nH]c1=O (centres undefined) | inactive
CN1c2ccccc2-c2nc3ccccc3n2C1c1cccs1 (centres undefined) | active: 10.3 µM
O=C(NCCOc1ccccc1)C1Nc2ccc(OC(F)(F)F)cc2C2C=CCC12 (centres undefined) | inconclusive [activator, full curve, poor fit]
O=C(Cn1nc(Cc2cccnc2)c2ccccc2c1=O)Nc1cc(F)ccc1F | inactive

SMILES | Potency
CCCCCn1c(SCC#N)nc2cc(C(=O)NCC3CCCO3)ccc2c1=O (centres undefined) | inconclusive [activator, single point]
C=CCNC(=S)NNC(=O)CSc1nc2ccccc2s1 | inactive
O=C(Nc1nc(-c2ccccn2)cs1)c1ccc(-c2ccccc2F)o1 | active: 20.6 µM
CCOC(=O)c1c(C)oc2c1c(C=NCc1ccccn1)c(O)c1ccccc12 | active: 11.6 µM
COC(=O)c1cc(NS(=O)(=O)c2ccc(N3CCOCC3)c(N)c2)cc(C(=O)OC)c1 | inactive
COc1ccc(CCNC2CC(=O)N(CCc3ccccc3)C2=O)cc1 (centres undefined) | inconclusive [activator, single point]
O=C(O)CCCCCNS(=O)(=O)c1cccc2c1C(=O)c1ccccc1C2=O | inconclusive [activator, single point]
Cc1ccc(N(C(=O)c2snc(C(N)=O)c2N)C(C(=O)NCC2CCCO2)c2c[nH]c3ccccc23)cc1 (centres undefined) | inconclusive [activator, single point]
COc1ccc(-c2csc3nc(C)nc(N4CCC(C)CC4)c23)cc1OC | inconclusive [activator, single point]
Cc1cc(OCC(=O)Nc2sc3c(c2C#N)CC(C)(C)NC3(C)C)c(C(C)C)cc1Cl | active: 18.4 µM
CC(C)n1c(SCC(=O)Nc2ccccc2N2CCOCC2)nc2c1c(=O)n(C)c(=O)n2C | inactive
COc1ccc(NC(=O)C2CCN(S(=O)(=O)c3ccc(OC)c(OC)c3)CC2)c(OC)c1 | inconclusive [activator, full curve, poor fit]
CCN(c1ccccc1)S(=O)(=O)c1ccc(Cl)c(NC(=O)CN(C)C2CCN(C)CC2)c1 | inconclusive [activator, partial curve, poor fit]
O=C(Nc1cc(Cl)ccc1N1CCCC1)C1=NN(c2ccccc2)C(=O)CC1 | inconclusive [activator, single point]
Cc1nnc(SCCn2c(N3CCC(C)CC3)nc3c2c(=O)n(C)c(=O)n3C)s1 | inactive
CC(NC(=O)/C(C#N)=C/c1ccc(OCC(=O)O)cc1)c1ccccc1 (centres undefined) | inconclusive [activator, single point]
O=C(Nc1ccc(F)c(Cl)c1)C1CCCC1 | inconclusive [activator, full curve, poor fit]
NC(=O)c1cc([N+](=O)[O-])c(Cl)cc1NCc1ccncc1 | inconclusive [activator, single point]
CN(C)/C=N/C1=C(C#N)C(c2cccs2)c2ccc3ccccc3c2O1 (centres undefined) | inconclusive [activator, partial curve, poor fit]
COc1ccc(CCNC(=O)COC(=O)C23CC4CC(CC(C4)C2)C3)cc1 | inconclusive [activator, partial curve, poor fit]
COc1cc(/C=C(\C#N)c2nc(-c3cc4ccccc4oc3=O)cs2)ccc1O | active: 0.92 µM
Clc1ccccc1CSc1nnc(-c2ccco2)c(-c2ccco2)n1 | active: 18.4 µM
Cc1cc(C)cc(NC(=O)c2sc3nc4n(c(=O)c3c2C)CCC4)c1 | inconclusive [activator, partial curve, poor fit]

SMILES | Potency
Cc1ccc(-c2nc3cc(NS(=O)(=O)c4ccc(C)cc4)ccc3o2)cc1 | inconclusive [activator, single point]
CCOC(=O)C1=C(O)/C(=C/c2ccc(-c3ccccc3C(=O)O)o2)SC1=Nc1ccc(OC)cc1 | inactive
CCOc1cc(NC(=S)NCc2ccco2)c(OCC)cc1NC(=O)CC(C)C | inactive
COC(=O)c1ccc(/C=C/C(=O)c2cccc(OC)c2)cc1 | inconclusive [activator, single point]
COc1ccc(-c2nc(CN3CCN(Cc4cccc(F)c4)CC3)c(C)o2)cc1 | inconclusive [activator, single point]
COc1ccc(-c2csc(N3CCN(Cc4ccc5c(c4)OCO5)CC3)n2)cc1 | inactive
Cc1cc2c(cc3c(=O)n(CC(=O)NCCCN4CC(C)CC(C)C4)ncn32)s1 (centres undefined) | inconclusive [activator, partial curve, poor fit]
CC1=NN(c2ccccc2)C(=O)/C1=C/c1c(O)n(-c2ccc(F)cc2)[nH]c1=O | inactive
O=[N+]([O-])c1cc2oc3c(c2c(C=NCc2ccncc2)c1O)CCCC3 | inconclusive [activator, partial curve, poor fit]
Cc1cccn2c(=O)c3cc(C(=O)NCc4cccnc4)c(=N)n(CC4CCCO4)c3nc12 (centres undefined) | active: 2.31 µM
O=C(c1ccccc1-c1ccccc1)N1CCN(c2ccccn2)CC1 | active: 7.31 µM
O=C(CCSc1nc(-c2ccco2)cc(C(F)(F)F)n1)N1CCCc2ccccc21 | inconclusive [activator, single point]
C/C(CC(=O)Nc1ccccc1F)=N\NC(=O)Cc1ccc(Cl)cc1 | inconclusive [activator, full curve, poor fit]
Cc1ccccc1NS(=O)(=O)c1cc(C(=O)Nc2ccccc2-c2ccccc2)ccc1Cl | inconclusive [activator, single point]
O=C(N/C(=C\c1ccc(F)cc1)C(=O)N1CCOCC1)c1ccccc1 | inconclusive [activator, single point]
Cc1ccc(-c2nnc(Nc3ccc4c(c3)OCO4)c3ccccc23)cc1S(=O)(=O)NC(C)C | inconclusive [activator, single point]
COc1cc(/C=N/NC(=O)c2ccc3c(c2)OCCO3)c(Br)c(Br)c1O | inconclusive [activator, single point]
CCN(CC)CCNCC1C(=O)O[C@@H]2C[C@@]3(C)CCC[C@H](C)C3=C[C@H]12 (some centres undefined) | inconclusive [activator, single point]
O=C1NC(=O)/C(=C/c2ccc(-c3cc(C(=O)O)ccc3Cl)o2)S1 | inconclusive [activator, single point]
c1ccc(COc2ccc(OCCCN3CCCC3)cc2)cc1 | inconclusive [activator, partial curve]
CCn1cc(C(=O)O)c(=O)c2cnc(N3CCN(C(=S)Nc4ccccc4)CC3)nc21 | inconclusive [activator, full curve, poor fit]
CCC(=O)c1cn(CC(=O)Nc2cc(C)ccc2C)c2ccccc12 | inconclusive [activator, single point]
COc1cc(/C=C(/C#N)c2nc3ccccc3[nH]2)ccc1OCC(=O)Nc1ccccc1C | active: 18.4 µM
